Reference: the supplement of paper PMC4604168 (melanoma cell lines)
This is one part of the list. Many values rest on one well or one pass, so single values are uncertain.

System: A2058
Assay: cell count relative to DMSO control; melanoma cells; higher = more viable cells
Details: library dose: standard library concentration; 72 h
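Note: cells treated in 1,536-well plates, then fixed and DAPI-stained, with nuclei counted from automated high-throughput microscope images.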

Row | Compound | cell count [%]
1 | NC(=O)c1ccc(N(C(N)=O)c2c(F)cccc2F)nc1-c1ccc(F)cc1F + NC(=O)Nc1cc(-c2cccc(F)c2)sc1C(=O)N[C@H]1CCCNC1 [AZD7762] (first compound 2 µM, partner dose 0.1 µM) | 72.5
2 | CCCCCCCCc1ccc(CCC(N)(CO)CO)cc1 [fingolimod] + COc1cc(N2CCC(N3CCN(C)CC3)CC2)ccc1Nc1ncc(Cl)c(Nc2ccccc2S(=O)(=O)C(C)C)n1 [NVP-TAE684] (first compound 10 µM, partner dose 0.4 µM) | 3.79
3 | NC(=O)c1ccc(N(C(N)=O)c2c(F)cccc2F)nc1-c1ccc(F)cc1F + CO[C@@H]1[C@H](N(C)C(=O)c2ccccc2)C[C@H]2O[C@]1(C)n1c3ccccc3c3c4c(c5c6ccccc6n2c5c31)C(=O)NC4 [Midostaurin] (first compound 2 µM, partner dose 0.4 µM) | 77.2
4 | NC(=O)c1ccc(N(C(N)=O)c2c(F)cccc2F)nc1-c1ccc(F)cc1F + C=C(c1ccc(C(=O)O)cc1)c1cc2c(cc1C)C(C)(C)CCC2(C)C [Bexarotene] (first compound 2 µM, partner dose 10 µM) | 103
5 | CCCCCCCCc1ccc(CCC(N)(CO)CO)cc1 [fingolimod] + CS(=O)(=O)CCNCc1ccc(-c2ccc3ncnc(Nc4ccc(OCc5cccc(F)c5)c(Cl)c4)c3c2)o1 [lapatinib] (first compound 10 µM, partner dose 4 µM) | 7.76
6 | CCCCCCCCc1ccc(CCC(N)(CO)CO)cc1 [fingolimod] + CC1(C)NC(=O)N(c2ccc([N+](=O)[O-])c(C(F)(F)F)c2)C1=O [nilutamide] (first compound 10 µM, partner dose 5 µM) | 6.11
